This is a selection; strong and weak results do not stand in their true shares. The list includes weakly bound sequences.
What was measured:
Test in all cases: protein-binding microarray (PBM)
Settings in all cases: PBM: ~300 nM protein, 6 mM HEPES pH 7.8, 80 mM KCl, 0.5 mM EDTA, 0.5 mM EGTA, 6% glycerol, 35 ng/ul poly-dIdC, 1% milk, 1 h, room temperature; Ap Aiptasia and Nv Nematostella (sea anemones) / Co Capsaspora / Aq Amphimedon (sponge) / Dm Drosophila / Hu human; RHD is the Rel homology domain; high values mean tight binding; most listed sequences are background and not binding sites; double strand, one strand shown
[1] = target: T1, GST-Ap-NF-kB RHD (UniProt A0A913YAJ5)
T1 sequence: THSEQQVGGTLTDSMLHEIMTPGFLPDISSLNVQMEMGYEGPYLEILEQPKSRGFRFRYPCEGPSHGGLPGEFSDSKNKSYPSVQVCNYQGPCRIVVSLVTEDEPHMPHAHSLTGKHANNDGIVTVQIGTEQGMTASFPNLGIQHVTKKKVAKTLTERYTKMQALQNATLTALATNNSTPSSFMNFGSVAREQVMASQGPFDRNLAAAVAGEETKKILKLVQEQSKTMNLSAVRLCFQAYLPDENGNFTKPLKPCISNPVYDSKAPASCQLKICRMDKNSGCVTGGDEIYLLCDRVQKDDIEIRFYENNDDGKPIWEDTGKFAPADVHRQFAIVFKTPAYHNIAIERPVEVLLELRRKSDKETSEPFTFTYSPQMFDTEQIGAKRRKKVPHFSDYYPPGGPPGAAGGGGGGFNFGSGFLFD

[2] = target: T2, GST-Nv-NF-kB (Cys allele) (UniProt E5G601)
T2 sequence: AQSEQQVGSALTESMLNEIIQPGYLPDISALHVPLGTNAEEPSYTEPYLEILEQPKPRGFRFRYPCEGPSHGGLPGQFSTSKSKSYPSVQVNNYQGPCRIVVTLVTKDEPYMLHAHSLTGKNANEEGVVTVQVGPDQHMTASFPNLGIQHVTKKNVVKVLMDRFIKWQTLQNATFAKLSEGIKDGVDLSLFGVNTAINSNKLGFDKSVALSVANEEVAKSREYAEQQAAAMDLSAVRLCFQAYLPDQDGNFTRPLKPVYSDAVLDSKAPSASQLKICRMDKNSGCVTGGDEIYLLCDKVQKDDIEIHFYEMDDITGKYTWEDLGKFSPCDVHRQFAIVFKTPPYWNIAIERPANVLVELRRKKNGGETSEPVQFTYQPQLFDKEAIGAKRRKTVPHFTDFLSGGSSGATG

[3] = target: T3, GST-Co-NF-kB (UniProt F1ARL5)
T3 sequence: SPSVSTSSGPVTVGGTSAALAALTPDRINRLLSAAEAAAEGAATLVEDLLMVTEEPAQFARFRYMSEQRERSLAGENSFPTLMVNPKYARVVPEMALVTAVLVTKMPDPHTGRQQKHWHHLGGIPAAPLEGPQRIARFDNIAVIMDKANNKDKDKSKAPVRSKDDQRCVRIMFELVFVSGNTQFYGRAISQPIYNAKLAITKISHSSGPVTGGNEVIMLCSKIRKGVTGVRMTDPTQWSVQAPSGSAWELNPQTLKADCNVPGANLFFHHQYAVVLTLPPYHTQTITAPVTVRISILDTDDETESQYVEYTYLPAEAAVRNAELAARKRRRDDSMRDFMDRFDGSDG

[4] = target: T4, GST-Dm-Relish (UniProt Q94527)
T4 sequence: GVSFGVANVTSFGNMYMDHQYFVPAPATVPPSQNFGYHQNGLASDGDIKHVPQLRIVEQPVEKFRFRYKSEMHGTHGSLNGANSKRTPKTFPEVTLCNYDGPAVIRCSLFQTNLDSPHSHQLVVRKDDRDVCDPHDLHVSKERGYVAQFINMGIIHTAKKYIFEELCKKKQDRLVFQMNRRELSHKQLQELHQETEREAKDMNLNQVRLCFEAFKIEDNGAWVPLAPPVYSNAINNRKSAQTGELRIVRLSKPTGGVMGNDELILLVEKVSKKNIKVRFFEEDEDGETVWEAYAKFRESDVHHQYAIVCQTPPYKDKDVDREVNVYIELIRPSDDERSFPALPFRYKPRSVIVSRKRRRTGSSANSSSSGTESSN

[5] = target: T5, GST-Aq-NF-kB (UniProt A9Y5G7)
T5 sequence: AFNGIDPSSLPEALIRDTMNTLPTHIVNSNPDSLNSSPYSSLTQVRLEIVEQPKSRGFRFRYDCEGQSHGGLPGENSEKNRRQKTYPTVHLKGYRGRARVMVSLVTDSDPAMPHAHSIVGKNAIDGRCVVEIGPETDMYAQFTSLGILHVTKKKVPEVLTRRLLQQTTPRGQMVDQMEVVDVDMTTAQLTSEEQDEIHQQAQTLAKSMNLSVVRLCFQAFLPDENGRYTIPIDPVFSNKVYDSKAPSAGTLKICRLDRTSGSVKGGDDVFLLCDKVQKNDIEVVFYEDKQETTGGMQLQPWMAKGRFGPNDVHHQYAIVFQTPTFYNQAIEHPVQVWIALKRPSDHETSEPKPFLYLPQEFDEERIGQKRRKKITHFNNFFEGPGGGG

CCGATTAACATCAGATGATATCATGATGTTAATCGGGTCTTGATTCGCTTGACGCTGCTG
binding signal [1]: -0.767 z-score | binding signal [2]: -1.09 z-score | binding signal [3]: -1.7 z-score | binding signal [4]: -0.956 z-score | binding signal [5]: -0.356 z-score

CCGATTAACATCAGGATTTTCTATGATGTTAATCGGGTCTTGATTCGCTTGACGCTGCTG
binding signal [1]: 0.527 z-score | binding signal [2]: -0.504 z-score | binding signal [3]: 0.192 z-score | binding signal [4]: 0.364 z-score | binding signal [5]: 0.379 z-score

CCGATTAACATCAAGTGCGCCCTTGATGTTAATCGGGTCTTGATTCGCTTGACGCTGCTG
binding signal [1]: -0.359 z-score | binding signal [2]: 0.39 z-score | binding signal [3]: -1.07 z-score | binding signal [4]: -0.156 z-score | binding signal [5]: -0.342 z-score

CCGATTAACATCAATACGAGGACTGATGTTAATCGGGTCTTGATTCGCTTGACGCTGCTG
binding signal [1]: 0.161 z-score | binding signal [2]: 0.893 z-score | binding signal [3]: 0.00134 z-score | binding signal [4]: -0.524 z-score | binding signal [5]: -0.259 z-score

CCGATTAACATCATGACTTACGCTGATGTTAATCGGGTCTTGATTCGCTTGACGCTGCTG
binding signal [1]: -0.372 z-score | binding signal [2]: -0.594 z-score | binding signal [3]: -0.478 z-score | binding signal [4]: -0.642 z-score | binding signal [5]: -0.532 z-score

CCGATTAACATCATCAATTACATTGATGTTAATCGGGTCTTGATTCGCTTGACGCTGCTG
binding signal [1]: -0.993 z-score | binding signal [2]: -1.11 z-score | binding signal [3]: -0.572 z-score | binding signal [4]: 0.35 z-score | binding signal [5]: -0.432 z-score

CCGATTAACATCACCGCTCTAAGTGATGTTAATCGGGTCTTGATTCGCTTGACGCTGCTG
binding signal [1]: 0.422 z-score | binding signal [2]: 0.39 z-score | binding signal [3]: 0.225 z-score | binding signal [4]: 0.77 z-score | binding signal [5]: 0.112 z-score

CCGATTAACATCAGAGCACGCTTTGATGTTAATCGGGTCTTGATTCGCTTGACGCTGCTG
binding signal [1]: -0.275 z-score | binding signal [2]: 0.0368 z-score | binding signal [3]: -0.537 z-score | binding signal [4]: -0.749 z-score | binding signal [5]: -0.255 z-score

CCGATTAACATCAAGGCGCGGTCTGATGTTAATCGGGTCTTGATTCGCTTGACGCTGCTG
binding signal [1]: 0.268 z-score | binding signal [2]: -0.93 z-score | binding signal [3]: -0.856 z-score | binding signal [4]: -0.661 z-score | binding signal [5]: -0.384 z-score

CCGATTAACATCACGCCTCGCGATGATGTTAATCGGGTCTTGATTCGCTTGACGCTGCTG
binding signal [1]: -0.568 z-score | binding signal [2]: -0.716 z-score | binding signal [3]: -1.84 z-score | binding signal [4]: -0.65 z-score | binding signal [5]: -0.49 z-score

CCGATTAACATCATTACAAGTTATGATGTTAATCGGGTCTTGATTCGCTTGACGCTGCTG
binding signal [1]: -0.849 z-score | binding signal [2]: -0.456 z-score | binding signal [3]: -0.461 z-score | binding signal [4]: -0.0355 z-score | binding signal [5]: -0.46 z-score

CCGATTAACATCAACGCCGGCATTGATGTTAATCGGGTCTTGATTCGCTTGACGCTGCTG
binding signal [1]: -0.134 z-score | binding signal [2]: 0.364 z-score | binding signal [3]: -1.04 z-score | binding signal [4]: -1.16 z-score | binding signal [5]: -0.545 z-score

CCGATTAACATCATATTTCAGGTTGATGTTAATCGGGTCTTGATTCGCTTGACGCTGCTG
binding signal [1]: 0.0711 z-score | binding signal [2]: -0.872 z-score | binding signal [3]: -0.0388 z-score | binding signal [4]: -0.461 z-score | binding signal [5]: -0.316 z-score

CCGATTAACATCAGACATTTTTCTGATGTTAATCGGGTCTTGATTCGCTTGACGCTGCTG
binding signal [1]: -0.669 z-score | binding signal [2]: -0.275 z-score | binding signal [3]: -0.946 z-score | binding signal [4]: -0.173 z-score | binding signal [5]: -0.376 z-score
